PubChem BioAssay (NCATS)
Inconclusive results, whose numbers are uncertain, are shown with a selection of clear calls. For part of these data: Potencies beside an inconclusive call are fits to weak or partial responses and may not hold up. For part of these data: “Side channel” marks fits to a control or component signal instead of the main read-out. Active and inactive are the calls of the source. Unless noted, calls follow the shape of the dose curve; as a rule, active = well fitted curve in the direction sought with a large enough effect; inconclusive = small, poorly fitted or top-dose-only effect, or another doubt; inactive = no such curve, though single readings can be large; an effect the other way counts as inactive or inconclusive.

What was measured:
[1] = test system: KB-3-1; test: Cytotoxic Profiling of Annotated Libraries Using Quantitative High-Throughput Screening (AID 1296008); conditions: Five cell lines viability, CellTiter-Glo ATP luminescence, 48-72 h; max response: stronger effect = lower value; also: nearly all actives have a fitted effect of over 60% in size; also: potency is read from the fitted curve at half-maximal effect; as to max response: % is scaled to controls: 0 for no effect and ±100 for the full control effect
How it was run: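 Cells exposed to compounds for 48 or 72 hr at 37 degrees Celsius. Viability read as ATP-coupled luminescence with CellTiter-Glo after 10 min at room temperature.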

[2] = test system: C33A; test: Primary qHTS to identify gynecologic anti-cancer compounds using libraries of approved drugs and bioactive compounds (AID 1345084); conditions: Gynecologic cancer cell panel viability, ATPlite luminescence, 48 h; series mostly up to 57.5 µM; also: nearly all actives have a fitted effect of over 55% in size; also: potency is read from the fitted curve at half-maximal effect; as to activity change, negative = cytotoxicity: % is scaled to controls: 0 for no effect and ±100 for the full control effect
How it was run: (§1)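 Five-concentration response, 48 h; readout is ATP-driven luciferase luminescence.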

[3] = test system: CAOV3; test: as above; conditions: Gynecologic cancer cell panel viability, ATPlite luminescence, 48 h; activity change, negative = cytotoxicity: at 57.5 µM (top of the series)
How it was run: as §1

[4] = test system: CASKI; test: as above; conditions: Gynecologic cancer cell panel viability, ATPlite luminescence, 48 h; series mostly up to 57.5 µM
How it was run: as §1

[5] = test system: Es-2; test: as above; conditions: Gynecologic cancer cell panel viability, ATPlite luminescence, 48 h; series mostly up to 57.5 µM
How it was run: as §1

[6] = test system: Hek293T; test: as above; conditions: Gynecologic cancer cell panel viability, ATPlite luminescence, 48 h, control line for the selectivity index; activity change, negative = cytotoxicity: at 57.5 µM (top of the series) unless noted
How it was run: as §1

[7] = test system: JEG-3; test: as above; conditions: Gynecologic cancer cell panel viability, ATPlite luminescence, 48 h; series mostly up to 57.5 µM
How it was run: as §1

[8] = test system: OV90; test: as above; conditions: Gynecologic cancer cell panel viability, ATPlite luminescence, 48 h; series mostly up to 57.5 µM
How it was run: as §1

[9] = test system: SKOV3; test: as above; conditions: Gynecologic cancer cell panel viability, ATPlite luminescence, 48 h; series mostly up to 57.5 µM
How it was run: as §1

[10] = test system: Tov-21-G; test: as above; conditions: Gynecologic cancer cell panel viability, ATPlite luminescence, 48 h; activity change, negative = cytotoxicity: at 57.5 µM (top of the series) unless noted
How it was run: as §1

[11] = test system: Tov112D; test: as above; conditions: Gynecologic cancer cell panel viability, ATPlite luminescence, 48 h; series mostly up to 57.5 µM
How it was run: as §1

[12] = test system: Zika virus NS2B-NS3 protease (unlinked complex); test: Primary screen GU Rhodamine qHTS for Zika virus inhibitors: Unlinked NS2B-NS3 protease assay (AID 1347159); also: nearly all actives have a fitted effect of over 60% in size; also: potency is read from the fitted curve at half-maximal effect; as to activity change, negative = inhibition: % is scaled to controls: 0 for no effect and ±100 for the full control effect
How it was run: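 Percent inhibition came from the 15-min rise in Rhodamine110 fluorescence (1.5 microM substrate, ~15% conversion), normalized to no-inhibitor and no-enzyme wells and Hill-fitted. Unlinked protease, 25 nM, pH 8.0 Tris buffer; compounds up to 114 microM, 15-min preincubation.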

[13] = Primary qHTS for inhibitors of nuclear receptor binding SET domain protein 2 (NSD2) in an RCH-ACV wild type WT cells (2C) (AID 1645877); conditions: activity change, negative = cell killing: at 44.9 µM (top of the series) unless noted; also: % is scaled to controls: 0 for no effect and ±100 for the full control effect; nearly all actives have a fitted effect of over 70% in size
[14] = P-glycoprotein substrates identified in KB-8-5-11 adenocarcinoma cell line, qHTS therapeutic library screen (AID 1346987); also: potency is read from the fitted curve at half-maximal effect; nearly all actives have a fitted effect of over 65% in size
How it was run: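 Compounds are pinned in dose-response onto KB-8-5-11 cells (500 cells/well, colchicine-free medium) and left 72 h at 37 degree C. CellTiter-Glo luminescence then yields AC50 values.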

[15] = biological target: Cytochrome P450 2D6 (Homo sapiens) (UniProt P10635); test: Cytochrome P450 family 2 subfamily D member 6 (CYP2D6) small molecule antagonists: luciferase biochemical (cell-free) qHTS assay (AID 1645840; active = well fitted curve in the direction sought with a large enough effect in the repeat runs; inconclusive = weak or mixed curves; inactive = no such curve, though single readings can be large; an effect the other way counts as inactive or inconclusive; also: potency is read from the fitted curve at half-maximal effect; nearly all actives have a fitted effect of over 55% in size)
How it was run: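 P450-Glo CYP2D6 system: proluciferin substrate converted by enzyme to luciferin, read by luminescence proportional to activity. Enzyme-substrate mix with compound 10 min at room temperature, then NADPH regeneration 1 h before detection reagent.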

[16] = Primary qHTS for inhibitors of nuclear receptor binding SET domain protein 2 (NSD2) in an isogenic RCH-ACV NSD2 p.E1099K mutant (9B) (AID 1645876); also: potency is read from the fitted curve at half-maximal effect; nearly all actives have a fitted effect of over 70% in size
[17] = Cell Viability - Jurkat (AID 426;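 active = dose-dependent loss of cell ATP signal giving a full or clear fitted curve, ranked by lower potency value; inconclusive = weak partial curve or response only at the top dose; inactive = no loss of viability signal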;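 also: potency is read from the fitted curve at half-maximal effect; cells exposed to compound for 40 hours at 37 °C before ATP read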); conditions: qHTS
How it was run: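 Cytotoxicity taken as drop in cellular ATP (CellTiter-Glo luminescence, 20 min room temperature) after 40 hr, 37C treatment of 5000 Jurkat Clone E6-1 cells per well; concentration-response fitted with Hill equation for AC50.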

[18] = Cell Viability - H-4-II-E (AID 543);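 also: cells exposed to compound for 40 hours; % is scaled to controls: 0 for no effect and ±100 for the full control effect; nearly all actives have a fitted effect of over 35% in size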
How it was run: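 CellTiter-Glo luminescence (intracellular ATP) measured after 40 h compound exposure at 37 °C in H-4-II-E rat hepatoma cells seeded at 1500/well. Values are AC50s fitted with the standard Hill equation.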

[19] = Cell Viability - SH-SY5Y (AID 544); conditions: SH-SY5Y neuroblastoma cell viability; at 92.2 µM (top of the series);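 also: cells exposed to compound for 40 hours; 0% = DMSO alone and -100% = 100 µM tamoxifen; nearly all actives have a fitted effect of over 55% in size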
How it was run: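 Cytotoxicity measured via ATP-dependent luciferase luminescence (CellTiter-Glo) following 40 h, 37 °C exposure of 1500 SH-SY5Y cells per well. Concentration-response data were fitted with the standard Hill equation to give AC50.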

[20] = biological target: Glucocorticoid receptor (Homo sapiens) (UniProt P04150); test: qHTS assay for small molecule agonists of glucocorticoid receptor signaling (AID 588532; active = well fitted curve in the direction sought with a large enough effect in the signal ratio, with a control signal flat; inconclusive = small, poorly fitted or top-dose-only effect, or a change in a side signal; inactive = no such curve, though single readings can be large or run the other way; the % refers to the signal ratio; also: potency is read from the fitted curve at half-maximal effect); conditions: HeLa MMTV-bla, beta-lactamase ratio, agonist, 18 h; activation: stronger effect = higher value, percent of dexamethasone control, DMSO zero
How it was run: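 MMTV-bla HeLa beta-lactamase reporter cells in 1% charcoal/dextran FBS medium, compounds up to 92 uM for 18 h at 37 C, CCF4 readout; normalized to 0.1 uM dexamethasone (100%), EC50 and efficacy from Hill fits.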

[21] = biological target: Peroxisome proliferator-activated receptor gamma (Homo sapiens) (UniProt P37231); test: qHTS assay for small molecule antagonists of peroxisome proliferator-activated receptor gamma signaling (AID 588537; active = well fitted inhibition curve with a large enough effect in the signal ratio, with a control signal flat, not every such curve was filed as active; inconclusive = small, poorly fitted or top-dose-only effect, or effect the other way, or a change in a side signal; the % refers to the signal ratio;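 also: reporter cells co-stimulated with 50 nM rosiglitazone agonist during compound treatment; % of control where 0% means no effect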); conditions: HEK293 PPARg-UAS-bla, beta-lactamase ratio, antagonist mode; activity, negative = inhibition: at 76.8 µM (top of the series)
How it was run: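 Fluorescence at 460 and 530 nm (405 nm excitation) reported beta-lactamase cleavage of CCF4 after 2 h room-temperature loading. HEK293 reporter cells in 1% charcoal/dextran-treated FBS had received compound and rosiglitazone for 16 h.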

[22] = biological target: Vitamin D3 receptor (Homo sapiens) (UniProt P11473); test: qHTS assay for small molecule antagonists of vitamin D receptor signaling (AID 588541; calls by dose curve;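 also: receptor activated by calcitriol during compound treatment; % is scaled to controls: 0 for no effect and ±100 for the full control effect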); conditions: HEK293T VDR-UAS-bla, beta-lactamase ratio, antagonist mode; activity change, negative = inhibition: at 76.7 µM (top of the series)
[23] = qHTS assay for small molecule agonists of the antioxidant response element (ARE) signaling pathway (AID 651741; active = well fitted activation curve with a large enough effect in the signal ratio; inconclusive = small, poorly fitted or top-dose-only effect, or effect the other way, or a change in a side signal; the % refers to the signal ratio; also: potency is read from the fitted curve at half-maximal effect); conditions: HepG2 ARE-bla reporter, beta-lactamase FRET ratio, 16 h; activation: at 96 µM (top of the series)
How it was run: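 Stably integrated ARE-beta-lactamase reporter HepG2 cells; 16 h compound incubation, 37 C; LiveBLAzer FRET substrate 2 h at room temperature; fluorescence intensity.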

[24] = qHTS assay for small molecule activators of the nuclear factor-kappa B (NF-kB) signaling pathway (AID 651749; active = well fitted activation curve with a large enough effect in the signal ratio; inconclusive = small, poorly fitted or top-dose-only effect, or a change in a side signal; the % refers to the signal ratio; also: % of control where 0% means no effect); conditions: NF-kB-bla ME-180 cells, beta-lactamase FRET ratio, 16 h; activation: stronger effect = higher value
How it was run: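 In this qHTS format, compounds acting as activators increase NF-kB-driven beta-lactamase in ME-180 cells, measured as disrupted FRET after 16 hr exposure at 37C and 5% CO2.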

[25] = NS1 protein of Zika virus - qHTS assay to identify small molecule inhibitors in human HEK 293 cells (AID 1347053);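 also: plate controls were infected untreated cells for no effect and uninfected cells for full effect; nearly all actives have a fitted effect of over 55% in size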
How it was run: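 Read-out is a two-antibody TR-FRET for ZIKV NS1, normalized between uninfected cells and infected cells. Compound added 1 h before MR766 infection at MOI 0.5; human HEK 293 cells incubated 24 h, 37 C.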

[26] = qHTS of pediatric cancer cell lines to identify multiple opportunities for drug repurposing: Primary screen for Saos-2 cells (AID 1347097); also: % is scaled to controls: 0 for no effect and ±100 for the full control effect; nearly all actives have a fitted effect of over 40% in size
How it was run: (§2)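 Readout: CellTiter-Glo luminescence, 48 h treatment. Controls DMSO (neutral) and bortezomib 2.3 µM final (positive). Potency and efficacy taken from primary-screen concentration-response curves.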

[27] = qHTS of pediatric cancer cell lines to identify multiple opportunities for drug repurposing: Primary screen for NB1643 cells (AID 1347099);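 also: plate controls were DMSO neutral control for no effect and bortezomib positive control for full effect; nearly all actives have a fitted effect of over 50% in size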
How it was run: as §2

[28] = qHTS of pediatric cancer cell lines to identify multiple opportunities for drug repurposing: Primary screen for BT-12 cells (AID 1347101);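 also: plate controls were DMSO for no effect and bortezomib positive control for full effect; nearly all actives have a fitted effect of over 25% in size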
How it was run: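 Cells (500-1,000/well) rested 5 h, then received compounds for 48 h; metabolically active cells were measured by CellTiter-Glo luminescence. Final concentrations spanned up to 46 µM (MIPE, 11-point) or 0.59 nM-46 µM (NPC, 8-point) in primary screens, 11-point in follow-ups.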

[29] = Primary qHTS for small molecule stabilizers of the endoplasmic reticulum resident proteome: Secreted ER Calcium Modulated Protein (SERCaMP) assay (AID 1508630); conditions: SH-SY5Y GLuc-SERCaMP (Gaussia luciferase released on ER calcium loss) secretion, thapsigargin, luminescence; activity change, negative = inhibition: at 38.4 µM (top of the series) unless noted; also: potency is read from the fitted curve at half-maximal effect
How it was run: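 The SH-SY5Y reporter protocol was run at 3 concentrations up to 38.3 uM (primary) or 11 concentrations (follow-up): 16 h compound, 100 nM thapsigargin for 4 h, then extracellular luciferase luminescence.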

[30] = test system: CP201; test: qHTS profiling for inhibitors of Plasmodium falciparum proliferation (AID 504749); also: nearly all actives have a fitted effect of over 60% in size; also: potency is read from the fitted curve at half-maximal effect;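 as to activity, negative = inhibition: 0% = DMSO vehicle and full inhibition = artemisinin control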; conditions: P. falciparum in erythrocytes, SYBR Green DNA, 72 h; series mostly up to 28.7 µM
How it was run: (§3)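 Each compound contacts P. falciparum-infected red blood cells for 72 h at 37 C; lysis buffer (Tris, EDTA, saponin, Triton X, SYBR Green I) is added and fluorescence measured next morning; values normalized to controls.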

[31] = test system: CP237; test: as above; conditions: P. falciparum in erythrocytes, SYBR Green DNA, 72 h; series mostly up to 28.7 µM
How it was run: as §3

[32] = test system: CP262; test: as above; conditions: P. falciparum in erythrocytes, SYBR Green DNA, 72 h; series mostly up to 28.7 µM
How it was run: as §3

[33] = test system: CP291; test: as above; conditions: P. falciparum in erythrocytes, SYBR Green DNA, 72 h; activity, negative = inhibition: at 28.7 µM (top of the series)
How it was run: as §3

[34] = test system: DIV14; test: as above; conditions: P. falciparum in erythrocytes, SYBR Green DNA, 72 h; series mostly up to 28.7 µM
How it was run: as §3

[35] = Drug repurposing screens with cells derived from glioblastoma tumor samples (AID 1345199); conditions: GBM patient neurospheres viability, ATP luminescence, 48 h; Potency: tumour line A unless noted; activity, negative = cell killing: at 46 µM (top of the series), tumour line A unless noted; also: potency is read from the fitted curve at half-maximal effect; nearly all actives have a fitted effect of over 40% in size
How it was run: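 Primary testing used CD133+ neurospheres from four GBM patients, seven concentrations, 48 h exposure and ATP-based viability; confirmation added three slower-growing patient lines.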

[36] = test system: WaGa; test: qHTS assay to identify novel small-molecules to repurpose for Merkel cell carcinoma treatment (AID 1296009); conditions: MCC and control cell lines, CellTiter-Glo viability, 72 h; series mostly up to 46 µM; also: % is scaled to controls: 0 for no effect and ±100 for the full control effect; nearly all actives have a fitted effect of over 60% in size
How it was run: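 Dose-response viability screen; 72 hr exposure at 37 degree celsius; CellTiter-Glo added, 10 min room temperature, luminescence read; RLUs scaled between no-cell and DMSO wells.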
Tags tell the direction and shape of the fitted curve or compound fluorescence and quenching.

Sequence of UniProt P10635 (P10635 whole entry, looked up): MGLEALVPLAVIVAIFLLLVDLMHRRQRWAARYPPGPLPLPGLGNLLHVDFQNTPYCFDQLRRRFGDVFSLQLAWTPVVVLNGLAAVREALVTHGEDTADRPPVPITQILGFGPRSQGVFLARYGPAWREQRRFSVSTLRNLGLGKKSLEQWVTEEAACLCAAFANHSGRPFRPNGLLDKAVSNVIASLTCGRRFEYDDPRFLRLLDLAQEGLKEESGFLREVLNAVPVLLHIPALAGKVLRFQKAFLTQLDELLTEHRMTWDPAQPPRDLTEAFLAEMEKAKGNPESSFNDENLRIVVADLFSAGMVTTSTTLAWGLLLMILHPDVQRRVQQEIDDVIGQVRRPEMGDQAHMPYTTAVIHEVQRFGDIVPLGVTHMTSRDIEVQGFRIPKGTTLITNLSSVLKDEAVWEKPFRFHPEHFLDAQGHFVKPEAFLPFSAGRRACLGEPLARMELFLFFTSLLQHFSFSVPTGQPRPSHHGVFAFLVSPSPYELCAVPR
Sequence of UniProt P37231 (P37231 whole entry, looked up): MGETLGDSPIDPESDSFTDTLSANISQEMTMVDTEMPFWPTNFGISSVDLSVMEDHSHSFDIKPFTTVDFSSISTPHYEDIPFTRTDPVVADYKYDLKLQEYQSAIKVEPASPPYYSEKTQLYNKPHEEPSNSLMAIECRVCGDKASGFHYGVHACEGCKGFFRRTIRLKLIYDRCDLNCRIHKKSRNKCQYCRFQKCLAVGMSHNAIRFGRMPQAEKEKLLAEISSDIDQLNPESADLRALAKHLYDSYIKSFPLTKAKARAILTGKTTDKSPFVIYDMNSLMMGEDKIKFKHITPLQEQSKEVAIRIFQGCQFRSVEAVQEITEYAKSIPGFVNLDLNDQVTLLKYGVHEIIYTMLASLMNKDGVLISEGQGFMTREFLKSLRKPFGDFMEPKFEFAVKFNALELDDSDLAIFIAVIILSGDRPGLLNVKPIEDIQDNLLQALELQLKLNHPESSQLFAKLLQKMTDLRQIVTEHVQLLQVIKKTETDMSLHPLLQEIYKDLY

NC1CCC(Nc2cc(-c3cccc(NCc4cccc(F)c4)n3)c(Cl)cn2)CC1 (stereo not given)
active: Potency [1] 0.366 µM | Potency [2] 1.26 µM | Potency [4] 0.891 µM | Potency [5] 0.708 µM | Potency [6] 1 µM | Potency [11] 0.891 µM
inconclusive: Potency [3] 10 µM [cytotoxic, partial curve, poor fit] | Potency [7] 14.1 µM [cytotoxic, partial curve, poor fit] | Potency [8] 0.501 µM [cytotoxic, full curve] | Potency [9] 1.58 µM [cytotoxic, full curve, poor fit] | Potency [10] 0.316 µM [cytotoxic, full curve, poor fit]

COc1c(C)c(OCC(O)C(C)(C)O)cc2c1COC2=O (stereo not given)
inactive: Potency [12] | Potency [13] | outcome [1] | Potency [2]

Cc1cc(-c2cnc(N)c3c(-c4ccc5scnc5c4)csc23)n(C)n1
active: Potency [14] 8.2 µM | Potency [16] 4.59 µM
inconclusive: Potency [12] 44.7 µM [inhibitor, partial curve] | Potency [15] 9.52 µM [inhibitor, partial curve, poor fit] | Potency [1] 16.4 µM [inhibitor, single point] | Potency [2] 12.6 µM [cytotoxic, partial curve, poor fit] | Potency [8] 14.1 µM [cytotoxic, partial curve] | Potency [9] 28.2 µM [cytotoxic, single point] | Potency [10] 4.47 µM [cytotoxic, partial curve, poor fit]

O=C(O)c1ccc(S(=O)(=O)N(Cl)Cl)cc1
inconclusive: Potency [17] 88.7 µM [single point] | Potency [20] 4.47 µM [side channel, falling, full curve, poor fit] | activity change, negative = inhibition [22] -3.48% | Potency [23] 66.8 µM [activator, single point] | Potency [29] 3.55 µM [inhibitor, full curve, poor fit] | Potency [30] 0.0021 µM [activator, full curve] | Potency [32] 21.3 µM [activator, partial curve, poor fit] | Potency [35] 35.5 µM [inhibitor, partial curve]
inactive: Potency [18] | viability change, negative = cytotoxic [19] -7.18% | Potency [21] | activation [24] -0.114% | Potency [25] | Potency [26] | Potency [27] | Potency [28] | Potency [31] | Potency [33] | Potency [34] | max response [1] -9.69% | Potency [36]
